Measured values: the supplement of paper PMC9446081
Hit rate of the full screen: of about 39,000 compounds, about 220 (0.56%) showed activity. Some of the results follow.

System: Escherichia coli K-12 BW25113
Assay: relative growth (OD600 normalised to plate interquartile mean) (fraction); higher = less growth inhibition, active = 0.2 or less
Conditions: 50 µM; LB; incubation time: overnight (16-24 h)
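Note: static incubation at 37 °C against the wild-type strain, values averaged over two biological replicates.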

| Compound | relative growth |
| --- | --- |
| C[C@@H]1CCCCO[C@@H](CN(C)Cc2ccc(C(F)(F)F)cc2)[C@H](C)CN([C@H](C)CO)C(=O)c2cc(NC(=O)CCCN(C)C)ccc2O1 | inactive: 0.977 |
| C[C@H]1CN([C@@H](C)CO)S(=O)(=O)c2ccc(C#Cc3ccccc3)cc2O[C@H]1CN(C)C(=O)CN(C)C | inactive: 0.96 |
| C[C@H](CO)N1C[C@H](C)[C@@H](CN(C)C(=O)C2CCCCC2)OCCCC[C@H](C)Oc2ccc(NC(=O)Nc3ccc(C(F)(F)F)cc3)cc2C1=O | inactive: 1.01 |
| Cc1cc(C(=O)Nc2cccc3c2O[C@@H](CN(C)S(=O)(=O)c2ccc(F)cc2)[C@H](C)CN([C@H](C)CO)C3=O)n(C)n1 | inactive: 1.01 |
| C[C@H]1CCCCO[C@H](CN(C)Cc2ccncc2)[C@@H](C)CN([C@@H](C)CO)C(=O)c2cc(NC(=O)c3ccccc3)ccc2O1 | inactive: 1.02 |
| C[C@@H]1CN([C@H](C)CO)C(=O)c2cc(NC(=O)Cc3ccccc3)ccc2O[C@@H](C)CCCCO[C@@H]1CN(C)C(=O)c1ccccc1 | inactive: 1.04 |
| C[C@@H]1CCCCO[C@@H](CN(C)C(=O)Nc2cccc3ccccc23)[C@@H](C)CN([C@H](C)CO)C(=O)c2cc(NC(=O)Nc3ccc(C(F)(F)F)cc3)ccc2O1 | inactive: 0.986 |
| CC(C)Nc1ncccn1 | inactive: 0.953 |
| CCCCCCCCNC[C@@H](O)[C@H](O)[C@@H](O)[C@@H](O)CO | inactive: 0.999 |
| C[C@H](CO)N1C[C@H](C)[C@H](CN(C)C(=O)NC2CCCCC2)Oc2c(NS(C)(=O)=O)cccc2C1=O | inactive: 0.992 |
| C[C@H]1CN([C@@H](C)CO)C(=O)c2cc(NS(=O)(=O)c3ccc(F)cc3)ccc2O[C@@H]1CN(C)Cc1ccncc1 | inactive: 0.995 |
| C[C@H](CO)N1C[C@H](C)[C@@H](CN(C)C(=O)Nc2ccc(C(F)(F)F)cc2)Oc2c(NC(=O)C3CCCCC3)cccc2C1=O | inactive: 0.841 |
| COc1ccc(S(=O)(=O)Nc2ccc3c(c2)C(=O)N([C@H](C)CO)C[C@H](C)[C@H](CN(C)Cc2ccc(C(F)(F)F)cc2)OCCCC[C@@H](C)O3)cc1 | inactive: 1.04 |
| COc1ccc(NC(=O)Nc2ccc3c(c2)C(=O)N([C@H](C)CO)C[C@H](C)[C@@H](CN(C)Cc2ccc(Oc4ccccc4)cc2)O3)cc1 | inactive: 1.06 |
| COCC(=O)Nc1ccc2c(c1)C(=O)N(C)C[C@H](OC)[C@@H](C)CN(C(=O)Cc1ccccn1)[C@H](C)CO2 | inactive: 1.03 |
| C[C@@H]1CN([C@@H](C)CO)C(=O)c2cc(NS(=O)(=O)c3cn(C)cn3)ccc2O[C@H]1CN(C)Cc1ccc(C(=O)O)cc1 | inactive: 0.999 |
| Cc1ccccc1S(=O)(=O)N1C[C@@H](O)COC[C@H]2O[C@H](CC(=O)NCc3ccccc3Cl)CC[C@@H]21 | inactive: 1.01 |
| COc1ccc(S(=O)(=O)N(C)C[C@@H]2OCCCC[C@@H](C)Oc3ccc(NC(=O)Nc4cccc5ccccc45)cc3C(=O)N([C@@H](C)CO)C[C@H]2C)cc1 | inactive: 1.03 |
| Cc1ccc(S(=O)(=O)Nc2ccc3c(c2)C(=O)N([C@@H](C)CO)C[C@H](C)[C@@H](CN(C)S(C)(=O)=O)OCCCC[C@H](C)O3)cc1 | inactive: 0.991 |

| Compound | relative growth |
| --- | --- |
| C[C@H]1CN([C@@H](C)CO)C(=O)c2cccc(NC(=O)c3cnccn3)c2O[C@H]1CN(C)S(=O)(=O)c1ccccc1 | inactive: 0.973 |
| C[C@@H]1CN([C@H](C)CO)C(=O)CCCn2nncc2CO[C@@H]1CN(C)C(=O)Nc1ccc2c(c1)OCCO2 | inactive: 1 |
| C[C@@H]1CCCCO[C@H](CN(C)C(=O)CCC(F)(F)F)[C@@H](C)CN([C@H](C)CO)C(=O)c2cc(NC(=O)c3ccccc3)ccc2O1 | inactive: 0.988 |
| O=C(NC[C@@H](O)CO)[C@]1(Cc2ccccc2)N=C(c2ccc(OCCCO)cc2)O[C@@H]1c1ccccc1 | inactive: 1.01 |
| Cc1noc(C)c1NC(=O)N(C)C[C@H]1Oc2ccc(NC(=O)Nc3ccc(C(F)(F)F)cc3)cc2CC(=O)N([C@H](C)CO)C[C@H]1C | inactive: 0.935 |
| Cc1ccc(S(=O)(=O)N(C)C[C@H]2Oc3c(NC(=O)C4CC4)cccc3C(=O)N([C@H](C)CO)C[C@H]2C)cc1 | inactive: 0.988 |
| C[C@H]1CCCCO[C@H](CN(C)S(=O)(=O)c2ccccc2)[C@@H](C)CN([C@@H](C)CO)C(=O)c2cc(NC(=O)Nc3ccc(F)cc3)ccc2O1 | inactive: 0.992 |
| COc1ccc(CN(C)C[C@H]2Oc3ccc(NS(C)(=O)=O)cc3C(=O)N([C@H](C)CO)C[C@H]2C)cc1 | inactive: 0.966 |
| CCOC(=O)C(=O)c1csc(NC=O)n1 | inactive: 1 |
| C[C@H]1CN([C@@H](C)CO)C(=O)c2cccc(NC(=O)Nc3cccc4ccccc34)c2O[C@@H]1CN(C)C(=O)NC1CCCCC1 | inactive: 0.947 |
| C[C@@H]1CN([C@@H](C)CO)C(=O)c2cccc(NS(=O)(=O)c3cccs3)c2O[C@H]1CN(C)Cc1ccncc1 | inactive: 0.999 |
| C[C@H](CO)N1C[C@H](C)[C@@H](CN(C)C(=O)Nc2ccc(C(F)(F)F)cc2)OCc2cnnn2CCCC1=O | inactive: 0.983 |
| NCc1nc2c([nH]1)CCCC2 | inactive: 1.01 |
| CO[C@@H]1CN(C)C(=O)c2cc(NC(=O)C3CCOCC3)ccc2OC[C@@H](C)N(CC2CCOCC2)C[C@H]1C | inactive: 1.01 |
| C[C@H](CO)N1C[C@H](C)[C@H](CN(C)C(=O)Nc2cccc3ccccc23)Oc2ncc(-c3cccc(C(F)(F)F)c3)cc2C1=O | inactive: 1.03 |
| C[C@@H]1CN([C@@H](C)CO)C(=O)Cc2cc(NC(=O)Cc3ccccc3)ccc2O[C@@H]1CN(C)S(=O)(=O)c1cccs1 | inactive: 1.05 |
| CN1C(=O)c2cc(NC(=O)C3CCOCC3)ccc2OC[C@@H]2O[C@H](CC(=O)NCc3ccc4c(c3)OCO4)CC[C@@H]21 | inactive: 0.981 |
| CC(C)NC(=O)N(C)C[C@H]1Oc2cc(C#Cc3ccccn3)ccc2S(=O)(=O)N([C@@H](C)CO)C[C@H]1C | inactive: 1.01 |
